In the test the test system is NCI-H322M lung. Put plainly: NCI tumour cell line growth inhibition, 48 h.

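1) Cells in 96-well plates. 2) Compound, 48 h, 5 concentrations. 3) Linear interpolation between surrounding doses. 4) Unreached endpoint = highest concentration. The concentration for 50% growth inhibition is given as GI50. TGI: total growth inhibition.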

For `O=C1NC2OC(CO)C(O)C(O1)C2O` (configuration not stated), the TGI was > 100 µM.

Turning to `COc1cc(C2=C(c3ccccc3)COC2=O)cc(OC)c1OC`, the GI50 was 6.46 µM and the TGI was > 100 µM.

On to `CCc1ccc(/C=C\c2cc(OC)c(OC)c(OC)c2)cc1`, for which the GI50 was 0.04 µM and the TGI was 31.8 µM.

As to `Oc1c(CN2CCC(N3CCCCC3)CC2)cc(Cc2cc(CN3CCC(N4CCCCC4)CC3)c(O)c3ncccc23)c2cccnc12`, the GI50 was 0.964 µM and the TGI stood at 13.3 µM.

The molecule `CSC(C1c2ccccc2N(c2ccc(C)cc2)C2=NC(=O)N(C)C(=O)C21Cl)S(=O)(=O)c1ccc(C)cc1` (configuration not stated) yielded a TGI of 59.7 µM.

With `O=C1CCC2(c3ccc(F)cc3)Nc3cc(Cl)ccc3N12` (configuration not stated), the TGI was > 100 µM.

`Clc1ccc(OCc2nnc(CCCCCCCCc3nnc(COc4ccc(Cl)cc4)n3Nc3ccccc3)n2Nc2ccccc2)cc1`: the TGI was > 100 µM.

`OCc1c[nH]c2ccccc12`: the GI50 was 24.8 µM and the TGI came to 78.2 µM.

Take `COC1/C=C\C=C(/C)C(=O)NC2=CC(=O)C(=O)C(=C2O)CC(C)CC(OC)C(O)C(C)/C=C(\C)C1OC(N)=O` (configuration not stated): the TGI was > 100 µM.

In the case of `COc1ccc2cc(NC(=O)N/N=C\c3ccc(Cl)cc3)ccc2c1`, the TGI is > 100 µM.

On to `O=C(Nc1ccccc1C(=O)NCCCO)/C(=C/c1ccccc1O)NC(=O)c1ccccc1`, for which the TGI is > 100 µM.

`COc1cc2c(/C=C3/C(=O)Nc4ccccc43)c(Cl)[nH]c2cc1C` gave a TGI of 17.8 µM.

In the case of `Cc1ccc2c(c1)[n+]([O-])c(N)n[n+]2[O-]`, the TGI was > 100 µM.

Take `CC1(C)OC2[C@@H](CNC(=O)NC(=O)NC(=O)CI)O[C@@H](n3cnc4c(NC(=O)Nc5ccccc5)ncnc43)[C@H]2O1` (some centres not stated): the GI50 was > 50 µM and the TGI was > 50 µM.

Regarding `CC1(C)OCC2OC3([C@H]4OC(C)(C)O[C@@H]4CO)OC(C)(C)OC3C2O1` (some centres not stated), the TGI is > 100 µM.

For the molecule `CCNC(=O)C1CCCN1C(=O)C(CCCN=C(N)N)NC(=O)C(CC(C)C)NC(=O)C(Cc1c[nH]c2ccccc12)NC(=O)C(Cc1ccc(O)cc1)NC(=O)C(CO)NC(=O)C(Cc1c[nH]c2ccccc12)NC(=O)C(Cc1cnc[nH]1)NC(=O)C1CCC(=O)N1` (configuration not stated), the TGI was > 100 µM.

For `COCC1OC(N2C(=O)NC(=O)[C@@H]3C=C4CCCCC4=C[C@@H]32)C(OC)C1OC` (some centres not stated), the TGI was > 100 µM.

With `NC1CNC(=O)c2c(Cl)sc(Cl)c21` (configuration not stated), the TGI was > 100 µM.

For `CN1CCN(C(=O)OCc2nc3c(N4CCOCC4)nc(Cl)nc3n2C)CC1`, the GI50 was 1.74 µM and the TGI was 4.17 µM.

In the case of `Cc1nc(C)c(Cc2ccccc2)o1`, the TGI is > 100 µM.

Regarding `COc1ccc(/C(COc2c(-c3ccccc3)oc3ccccc3c2=O)=N\O)cc1`, the GI50 is 0.205 µM and the TGI came to 19.4 µM.

For `Cc1cc2c(cc1C)[n+](=O)c(C(=O)C/C(=N/NC(=O)CC#N)C(=O)Nc1ccccc1C(F)(F)F)c(C)n2[O-]`, the TGI is > 100 µM.

Regarding `Cc1cc2ncc3c(=O)n(NS(=O)(=O)c4ccc(N)cc4)ccc3n2n1`, the TGI is > 100 µM.

Take `O=c1c2ccccc2nc(Nc2cccc(Cl)c2)n1/N=C/C=C/c1ccccc1`: the TGI was > 100 µM.

For `COc1cc(I)c2c3c1OC1C34CCN(C)C(C2)C4=CC(I)C1(OC)OC` (configuration not stated), the TGI was > 100 µM.

For `CCC[CH2][Sn]1([CH2]CCC)[O]Cc2nc(C)ccc2[O]1`, the GI50 is 15.8 µM and the TGI came out at 29.3 µM.

For the molecule `CC(C)c1nc(CN(C)C(=O)N[C@H](C(=O)N[C@@H](Cc2ccccc2)C[C@H](O)[C@H](Cc2ccccc2)NC(=O)OCc2cncs2)C(C)C)cs1`, the GI50 was 26.4 µM and the TGI was > 82.1 µM.

Take `CN1CCN(C)C12C=c1ccccc1=CC21CC1`: the TGI is > 79.6 µM.

The record behind these values is PubChem BioAssay (NCI).
